Source: PubChem BioAssay AID1768 (National Center for Advancing Translational Sciences (NCATS), 2009)
Screen size: about 270,000 compounds; about 620 (0.23%) were called active. Inconclusive means that the source gave no clear call. Such entries were picked first, then a sample of the others. Calls follow the shape of the dose curve; as a rule, active = well fitted inhibition curve with a large enough effect in the polarisation, with a control signal flat (not every such curve was filed as active); inconclusive = small, poorly fitted or top-dose-only effect, or effect the other way, or a change in a side signal; inactive = no such curve, though single readings can be large or run the other way; the % refers to the polarisation. Where the call is inconclusive, the potency comes from a doubtful curve fit. “Side channel” marks fits to a control or component signal instead of the main read-out.

Molecular target: Menin (Homo sapiens) (UniProt O00255)
Test: qHTS Assay for Inhibitors Targeting the Menin-MLL Interaction in MLL Related Leukemias: Competition With Texas Red Labeled MLL-derived Mutant Peptide
Conditions: fluorescence polarization; series mostly up to 61.6 µM
Potency is read from the fitted curve at half-maximal effect; tags tell the direction and shape of the fitted curve or compound fluorescence and quenching.

Chain of UniProt O00255 (O00255 whole entry, looked up): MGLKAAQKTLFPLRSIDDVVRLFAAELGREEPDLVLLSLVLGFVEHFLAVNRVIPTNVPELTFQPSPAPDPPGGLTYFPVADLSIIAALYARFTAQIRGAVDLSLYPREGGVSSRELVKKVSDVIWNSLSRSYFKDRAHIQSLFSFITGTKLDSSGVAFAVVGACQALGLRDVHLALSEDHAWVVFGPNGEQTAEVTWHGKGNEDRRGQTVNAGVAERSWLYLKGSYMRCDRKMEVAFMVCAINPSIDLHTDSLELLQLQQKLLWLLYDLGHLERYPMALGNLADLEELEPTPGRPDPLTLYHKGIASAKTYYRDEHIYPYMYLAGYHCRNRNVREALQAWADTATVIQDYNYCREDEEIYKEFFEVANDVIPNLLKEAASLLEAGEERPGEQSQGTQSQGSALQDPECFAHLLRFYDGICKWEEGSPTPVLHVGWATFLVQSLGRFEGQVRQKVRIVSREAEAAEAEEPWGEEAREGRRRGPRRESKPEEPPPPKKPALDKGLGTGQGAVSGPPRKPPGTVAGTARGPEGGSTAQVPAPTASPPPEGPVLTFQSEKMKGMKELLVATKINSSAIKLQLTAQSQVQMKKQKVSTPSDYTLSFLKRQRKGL

Potency, inconclusive:
CCOC(=O)C1CCN(C(=O)c2sc3nc(C)nc(N4CCC(C)CC4)c3c2C)CC1 28.2 µM [fluorescent, side channel, single point], CN1/C(=C\C(=O)CN2C(=O)NC3(CCCCCC3)C2=O)C(C)(C)c2ccccc21 22.4 µM [fluorescent, side channel, partial curve], Cc1ccccc1NC(=O)/C(C#N)=C/c1ccc(-c2ccc(Cl)c(C(=O)O)c2)o1 39.8 µM [quencher, side channel, partial curve], CCn1c(N)c(C(=O)NCc2ccc3c(c2)OCO3)sc1=S 25.1 µM [quencher, side channel, single point], CCCC(C)C(=O)Nc1nnc(CCc2ccccc2)s1 (centres undefined) 12.6 µM [fluorescent, side channel, partial curve], CC(=O)c1ccc(N2CCN(C(=S)Nc3cccc(Cl)c3)CC2)cc1 39.8 µM [fluorescent, single point], CC(=O)c1ccc(NS(=O)(=O)c2ccc(CC(C)C)cc2)cc1 25.1 µM [quencher, side channel, single point], O=C(CN1CCN(c2ccc(F)cc2)CC1)Nc1ccccc1Br 11.2 µM [fluorescent, side channel, partial curve, poor fit], O=C(Nc1cccc(NC(=O)c2cccs2)c1)c1ccc2c(c1)OCCO2 22.4 µM [quencher, side channel, single point], Cc1nc2ccccc2nc1Nc1cccc(Cl)c1 31.6 µM [quencher, side channel, single point], O=C(N/N=C/c1ccc(OC(=O)c2ccccc2Cl)cc1)c1cc(O)cc(O)c1 15.8 µM [quencher, side channel, partial curve], C#CCOCCOCCOCCNc1nc(N2CCN(C(=O)[C@H]([C@@H](C)CC)n3cc([C@@H](N)CC(C)C)nn3)CC2)nc(N2CCN(C(=O)[C@H]([C@@H](C)CC)n3cc([C@@H](N)CC(C)C)nn3)CC2)n1 1.12 µM [fluorescent, side channel, full curve], NC(=O)c1cc2ccccc2o/c1=N\NC(=O)c1ccc(F)cc1 4.47 µM [inhibitor, full curve, poor fit], O=C(CSc1nc2c(c(=O)n1-c1ccc(F)cc1)SCC2)N1CCCC1 10 µM [inhibitor, partial curve], Cc1c(C)n(Cc2ccccc2)c2ncnc(NN)c12 39.8 µM [inhibitor, single point], O=C(Nc1nc(-c2ccco2)c(-c2ccco2)s1)C1CC(=O)N(c2ccc3c(c2)OCCO3)C1 (centres undefined) 14.1 µM [quencher, side channel, partial curve], O=c1c(Cc2c(F)cccc2Cl)c(O)ccn1CCc1c[nH]c2ccccc12 35.5 µM [quencher, side channel, single point], Cc1c(NC(=O)C(Sc2ccccc2)c2ccccc2)cccc1[N+](=O)[O-] (centres undefined) 7.08 µM [quencher, side channel, partial curve], C#CCOCCOCCOCCNc1nc(N2CCN(C(=O)[C@H]([C@@H](C)CC)n3cc([C@@H](N)CC(C)C)nn3)CC2)nc(N2CCN(C(=O)[C@H](Cc3ccc(O)cc3)n3cc([C@@H](N)CC(C)C)nn3)CC2)n1 1.26 µM [fluorescent, side channel, full curve], COc1cccc(N2CCN(CC(=O)NC(C)c3ccccc3)CC2)c1 (centres undefined) 11.2 µM [inhibitor, partial curve], CCOC(=O)c1[nH]c2ccc(OC)cc2c1NC(=O)CCN1CCN(Cc2ccccc2)CC1 28.2 µM [fluorescent, side channel, single point], CCc1cccc2c(C(=O)CN3C(=O)NC(C)(c4cccc5ccccc45)C3=O)c[nH]c12 (centres undefined) 2.82 µM [quencher, side channel, full curve, poor fit], Cc1ccc(S(=O)(=O)N/N=C\c2ccc(Cl)c([N+](=O)[O-])c2)cc1 31.6 µM [quencher, side channel, single point], O=C(Nc1nc2ccccc2s1)c1ccc(Cl)s1 11.2 µM [quencher, side channel, partial curve], COc1ccc(C(=O)NC(=S)Nc2cccc(NC(=O)c3ccco3)c2)cc1[N+](=O)[O-] 8.91 µM [quencher, side channel, partial curve], COc1cc2c(cc1OC)-c1c(oc3cc(O)cc(O)c3c1=O)CO2 22.4 µM [quencher, side channel, partial curve], Nc1nnc(SCCOc2ccccc2)s1 39.8 µM [fluorescent, side channel, single point], COC(=O)[C@@]1(C)C=C[C@@H](Cc2ccccc2)N1C(=O)c1ccccc1 8.91 µM [inhibitor, partial curve], COc1ccc(Nc2nc(NN)nc(C)c2[N+](=O)[O-])cc1 28.2 µM [quencher, side channel, partial curve], N#Cc1ccc(CSc2nnc(COc3ccccc3)n2-c2ccccc2)cc1 28.2 µM [fluorescent, side channel, single point], CC/C(=C/c1ccccc1)c1cccc2[nH]c3c(OC)cccc3c12 3.55 µM [quencher, side channel, full curve], Cc1ccc(S(=O)(=O)N(C)CC(=O)Nc2cccc3c2CCCC3)cc1 39.8 µM [inhibitor, partial curve], COC(=O)Nc1ccc(S(=O)(=O)NNC(=O)c2c(O)c3ccccc3n(C)c2=O)cc1 17.8 µM [quencher, side channel, partial curve], COc1ccc2c(Cl)c(C(=O)N/N=C/c3ccc4c(c3)OCO4)sc2c1 7.94 µM [inhibitor, partial curve], O=C1C2=C(C(=O)c3ccccc31)C1O[C@](CCCCN3C(=O)c4ccccc4C3=O)(Cc3ccccc31)O2 3.16 µM [quencher, side channel, partial curve], COc1ccc(C(=O)c2sc3nc(-c4ccccc4)ccc3c2N)cc1 7.94 µM [quencher, side channel, full curve], Cc1cccc(-n2nc3c(c2NC(=O)c2ccc(Br)o2)CSC3)c1C 35.5 µM [inhibitor, single point], CC(/C=C1\SC(=O)N(CC(=O)Nc2cccc(O)c2)C1=O)=C\c1ccccc1 28.2 µM [quencher, side channel, partial curve], N#Cc1c(Cl)c(Cl)c2nnc(-c3ccc(Br)cc3)n2c1Cl 15.8 µM [quencher, side channel, partial curve], CCN1C(=O)/C(=C/N(C)c2ccccc2)OC1=S 1.26 µM [inhibitor, full curve], Cc1ccc(SC(CC(=O)c2ccc(F)cc2)C(=O)O)cc1 (centres undefined) 28.2 µM [quencher, side channel, single point], CC(C)c1nc(CN(C)C(=O)N[C@H](C(=O)N[C@@H](Cc2ccccc2)C[C@H](O)[C@H](Cc2ccccc2)NC(=O)OCc2cncs2)C(C)C)cs1 17.8 µM [fluorescent, side channel, partial curve], Cc1cccc(NC(=O)C2C3C=CC4(O3)C2C(=O)N(CCCN2CCCC2)C4C(=O)NC2CCCC(C)C2C)c1 (centres undefined) 39.8 µM [fluorescent, side channel, partial curve], O=C(c1ccccc1C(=O)N1CCN(c2ccccc2)CC1)N1CCN(c2ccccc2)CC1 22.4 µM [fluorescent, side channel, single point], CC1(C)Cc2nc3sc(C(=O)O)c(N)c3cc2CS1 10 µM [quencher, side channel, partial curve]

Potency, inactive:
CN1CCN(S(=O)(=O)c2cccc(S(=O)(=O)c3ccc(Cl)c(Cl)c3)c2)CC1, CCN1C=C(C(=O)OC)C(c2cccc(OC)c2OC)C(C(=O)OC)=C1, COC(=O)C1(C(=O)OC)CC2=CC(CC2=O)Cc2ccccc2[C@@H]1C[N+](=O)[O-] (some centres undefined), O=C(c1cccc(S(=O)(=O)N2CCc3ccccc3C2)c1)N1CCN(c2ccc(O)cc2)CC1, CC1(C(=O)N(CC(=O)NC2CCCC2)Cc2ccccc2)CC(=O)N=C2C=CC=CN21 (centres undefined), COc1ccc(C2Nc3ccccc3C(=O)N2Cc2ccco2)cc1COc1ccc([N+](=O)[O-])cc1 (centres undefined), Nc1ncc(CCN2CCOCC2)c(-c2ccc(F)cc2)n1, O=C(O)c1cc(S(=O)(=O)O)ccc1O

Potency, active:
O=C(Nc1nc(-c2ccc3c(c2)Cc2ccccc2-3)cs1)c1ccccc1 15.8 µM
